Paper PMC7060200, “Selective Binding of HSC70 and its Co-Chaperones to Structural Hotspots on CFTR” (Scientific Reports, 2020)
These are yes or no findings as the source states them, for the method shown. Some results given as binding are weak or reduced against the parent protein; the word gives no strength.

The chains behind the UniProt entries cited, without tags or fusion partners. Where a name states a change or a piece, a line headed by the entry shows the natural chain unless it says otherwise.
UniProt P13569: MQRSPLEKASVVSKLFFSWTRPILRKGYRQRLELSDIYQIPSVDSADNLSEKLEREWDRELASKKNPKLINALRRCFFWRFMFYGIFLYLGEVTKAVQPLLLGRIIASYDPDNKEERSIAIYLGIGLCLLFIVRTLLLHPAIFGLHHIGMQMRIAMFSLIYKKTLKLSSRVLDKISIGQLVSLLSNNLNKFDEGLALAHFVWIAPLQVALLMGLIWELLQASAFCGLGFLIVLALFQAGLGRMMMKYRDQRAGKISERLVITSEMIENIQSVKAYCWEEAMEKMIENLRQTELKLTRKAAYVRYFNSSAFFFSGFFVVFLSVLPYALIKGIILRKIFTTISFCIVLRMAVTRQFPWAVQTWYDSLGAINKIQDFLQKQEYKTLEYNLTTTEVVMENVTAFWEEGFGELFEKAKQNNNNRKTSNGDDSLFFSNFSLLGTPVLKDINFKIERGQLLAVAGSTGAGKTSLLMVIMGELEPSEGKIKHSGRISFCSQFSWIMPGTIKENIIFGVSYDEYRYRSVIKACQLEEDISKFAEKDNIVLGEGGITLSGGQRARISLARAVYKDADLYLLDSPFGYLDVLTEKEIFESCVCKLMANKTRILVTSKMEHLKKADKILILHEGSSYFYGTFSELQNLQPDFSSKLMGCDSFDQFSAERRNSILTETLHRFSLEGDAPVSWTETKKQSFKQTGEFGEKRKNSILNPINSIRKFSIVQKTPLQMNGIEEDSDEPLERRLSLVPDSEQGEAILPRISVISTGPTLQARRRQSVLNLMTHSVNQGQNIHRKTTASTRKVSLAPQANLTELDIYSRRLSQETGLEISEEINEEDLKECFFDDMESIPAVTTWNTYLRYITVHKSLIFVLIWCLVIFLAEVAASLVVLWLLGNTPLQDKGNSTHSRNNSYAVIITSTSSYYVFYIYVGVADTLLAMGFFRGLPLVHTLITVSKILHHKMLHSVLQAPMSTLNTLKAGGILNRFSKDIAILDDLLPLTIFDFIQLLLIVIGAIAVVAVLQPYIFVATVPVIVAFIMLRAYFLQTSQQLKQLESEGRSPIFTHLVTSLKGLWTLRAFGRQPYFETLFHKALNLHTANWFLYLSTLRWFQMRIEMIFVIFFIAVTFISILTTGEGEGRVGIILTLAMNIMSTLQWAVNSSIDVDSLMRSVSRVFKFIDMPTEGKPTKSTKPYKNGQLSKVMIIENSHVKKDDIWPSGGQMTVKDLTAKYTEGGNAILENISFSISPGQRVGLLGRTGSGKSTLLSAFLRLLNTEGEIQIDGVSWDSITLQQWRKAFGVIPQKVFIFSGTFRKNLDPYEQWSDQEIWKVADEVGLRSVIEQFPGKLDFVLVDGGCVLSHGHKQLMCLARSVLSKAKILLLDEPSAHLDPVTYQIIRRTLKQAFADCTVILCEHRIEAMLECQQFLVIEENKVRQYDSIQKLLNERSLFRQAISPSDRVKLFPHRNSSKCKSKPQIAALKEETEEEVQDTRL
UniProt P11142: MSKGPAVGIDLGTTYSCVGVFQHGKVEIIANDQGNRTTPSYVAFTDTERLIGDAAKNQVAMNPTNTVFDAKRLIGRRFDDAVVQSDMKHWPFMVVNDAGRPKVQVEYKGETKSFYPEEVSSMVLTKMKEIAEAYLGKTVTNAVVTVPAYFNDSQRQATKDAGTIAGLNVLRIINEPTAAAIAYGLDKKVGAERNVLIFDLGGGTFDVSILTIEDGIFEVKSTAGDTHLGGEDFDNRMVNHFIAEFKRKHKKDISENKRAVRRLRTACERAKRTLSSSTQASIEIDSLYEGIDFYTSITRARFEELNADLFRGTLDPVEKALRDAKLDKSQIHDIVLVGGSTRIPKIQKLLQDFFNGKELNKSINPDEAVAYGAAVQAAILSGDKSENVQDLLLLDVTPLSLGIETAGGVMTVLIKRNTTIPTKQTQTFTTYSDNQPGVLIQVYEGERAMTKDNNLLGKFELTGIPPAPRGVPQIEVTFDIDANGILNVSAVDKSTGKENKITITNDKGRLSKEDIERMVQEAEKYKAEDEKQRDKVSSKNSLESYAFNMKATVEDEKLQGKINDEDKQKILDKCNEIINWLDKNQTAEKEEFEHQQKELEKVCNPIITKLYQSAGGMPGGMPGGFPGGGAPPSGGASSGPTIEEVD
UniProt O60884: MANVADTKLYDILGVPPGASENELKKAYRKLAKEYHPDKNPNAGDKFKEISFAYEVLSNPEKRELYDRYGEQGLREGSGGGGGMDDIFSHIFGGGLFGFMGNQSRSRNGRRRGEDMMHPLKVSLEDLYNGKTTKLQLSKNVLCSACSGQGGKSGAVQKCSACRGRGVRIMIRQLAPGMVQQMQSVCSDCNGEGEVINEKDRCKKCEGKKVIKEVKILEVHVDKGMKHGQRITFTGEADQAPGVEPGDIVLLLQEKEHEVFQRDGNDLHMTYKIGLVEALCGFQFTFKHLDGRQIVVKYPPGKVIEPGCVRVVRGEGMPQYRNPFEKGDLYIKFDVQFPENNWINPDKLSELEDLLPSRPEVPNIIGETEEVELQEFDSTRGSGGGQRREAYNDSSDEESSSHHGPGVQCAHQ

B1: CFTR peptide 733-L, soluble unmodified (peptide, UniProt P13569 726-740)
peptide: EDSDEPLERRLSLVP
B2: CFTR peptide 1293-L, soluble unmodified (peptide, UniProt P13569 1286-1300)
peptide: FGVIPQKVFIFSGTF
B3: CFTR peptide 571-S (peptide, UniProt P13569 567-575)
peptide: DLYLLDSPF
B4: CFTR peptide 618-S (peptide, UniProt P13569 614-622)
peptide: DKILILHEG
B5: CFTR peptide 1394-S (peptide, UniProt P13569 1390-1398)
peptide: QAFADCTVI
B6: CFTR peptide 593-S (peptide, UniProt P13569 589-597)
peptide: SCVCKLMAN
B7: CFTR peptide 488-L, soluble unmodified (peptide, UniProt P13569 481-495)
peptide: KIKHSGRISFCSQFS
B8: CFTR peptide 493-L, soluble unmodified (peptide, UniProt P13569 486-500)
peptide: GRISFCSQFSWIMPG
B9: CFTR peptide 1402-S (peptide, UniProt P13569 1398-1406)
peptide: ILCEHRIEA
B10: CFTR peptide 1406-S (peptide, UniProt P13569 1402-1410)
peptide: HRIEAMLEC
B11: CFTR peptide 589-S (peptide, UniProt P13569 585-593)
peptide: EIFESCVCK
B12: CFTR peptide 1295-S (peptide, UniProt P13569 1291-1299)
peptide: QKVFIFSGT

Each binder was assayed against HSC70 (HSPA8), His-tagged (UniProt P11142) (assay: ELISA; competition: NBD1 immobilised on streptavidin plates, incubated at 30 °C, 1 μM HSC70 bound with ATP in the presence of soluble competitor peptide; both purified).

binding | Binder
no binding | B1

Each binder was assayed against DNAJA1 (DJA1), His-tagged (UniProt P31689) (assay: ELISA; competition: 1 μM chaperone mixed with soluble peptide (titrated up to 100 μM, or fixed 100 μM in the screens) and bound to immobilised 1097-L; Kd of the competing peptide from linearised competition curves; both purified).

binding | Binder
no binding (tested: 100 μM) | B2
no binding (tested: 100 μM) | B3
binds | B4
binds | B5
binds | B6
no binding (tested: 100 μM) | B7
no binding (tested: 100 μM) | B8

The binders below were run against HSC70 (HSPA8), His-tagged (UniProt P11142) in the same assay as above.

binding | Binder
no binding (tested: 100 μM) | B3
binds | B5
no binding (tested: 100 μM) | B7
no binding (tested: up to 100 μM) | B1
binds | B9
no binding (tested: 100 μM) | B8
binds | B10

What follows are binders tested against DNAJA2 (DJA2), His-tagged (UniProt O60884) in the same assay as above.

binding | Binder
no binding (tested: 100 μM) | B2
binds | B11
binds | B3
binds | B4
binds | B12
binds | B5
no binding (tested: 100 μM) | B7
no binding (tested: 100 μM) | B8
